Out of some 310,000 compounds screened, about 2,200 (0.71%) showed an effect of 50% or more. Effects have a minus sign here. The list shows a part of the results.

The assay deals with human ether-à-go-go-related gene (hERG) potassium channel (human, UniProt Q12809). Description: primary screen, population patch clamp on CHO cells stably expressing hERG.
Chain of human ether-à-go-go-related gene (hERG) potassium channel (Q12809 whole entry, looked up): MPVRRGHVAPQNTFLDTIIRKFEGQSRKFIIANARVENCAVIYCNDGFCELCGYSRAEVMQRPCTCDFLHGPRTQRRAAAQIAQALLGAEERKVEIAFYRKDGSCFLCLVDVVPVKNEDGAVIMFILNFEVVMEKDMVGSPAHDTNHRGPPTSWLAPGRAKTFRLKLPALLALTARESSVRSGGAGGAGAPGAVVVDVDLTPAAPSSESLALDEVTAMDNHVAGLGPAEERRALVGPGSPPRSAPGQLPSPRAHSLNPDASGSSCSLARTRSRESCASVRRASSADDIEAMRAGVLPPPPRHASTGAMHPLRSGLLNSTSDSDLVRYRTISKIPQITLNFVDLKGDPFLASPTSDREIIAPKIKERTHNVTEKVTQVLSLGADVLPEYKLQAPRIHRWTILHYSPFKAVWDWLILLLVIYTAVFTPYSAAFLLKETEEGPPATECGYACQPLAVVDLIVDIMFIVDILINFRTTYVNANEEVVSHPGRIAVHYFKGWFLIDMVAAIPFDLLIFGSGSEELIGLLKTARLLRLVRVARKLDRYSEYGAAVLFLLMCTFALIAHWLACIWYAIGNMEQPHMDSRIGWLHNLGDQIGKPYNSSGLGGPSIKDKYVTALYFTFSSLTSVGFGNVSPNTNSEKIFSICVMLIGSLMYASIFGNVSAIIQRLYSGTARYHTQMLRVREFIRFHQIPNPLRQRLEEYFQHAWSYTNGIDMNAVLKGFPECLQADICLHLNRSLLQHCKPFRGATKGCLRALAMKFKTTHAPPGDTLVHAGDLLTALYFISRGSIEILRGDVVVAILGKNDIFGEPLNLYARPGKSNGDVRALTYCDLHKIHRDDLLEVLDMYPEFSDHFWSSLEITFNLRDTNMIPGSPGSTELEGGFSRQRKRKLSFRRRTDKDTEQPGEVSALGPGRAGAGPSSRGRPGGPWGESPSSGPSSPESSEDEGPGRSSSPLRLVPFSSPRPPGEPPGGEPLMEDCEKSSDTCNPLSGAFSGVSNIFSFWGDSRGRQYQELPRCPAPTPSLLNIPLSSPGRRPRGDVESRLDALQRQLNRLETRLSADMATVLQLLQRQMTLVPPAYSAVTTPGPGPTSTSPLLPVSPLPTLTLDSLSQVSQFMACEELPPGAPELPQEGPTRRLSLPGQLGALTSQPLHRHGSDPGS
On to `CCn1cc(C(=O)N[C@H](C(=O)NCCO)C(C)C)c(=O)c2cc3c(cc21)OCO3`, for which the “hERG current change (%, negative = inhibition) at 1uM” value was 12.7%.
In the case of `Cc1ccc(CCNC(=O)C2CC(c3cc(C(F)(F)F)cc(C(F)(F)F)c3)=NO2)cc1` (centres unmarked) it was 10.5%; in that of `Cc1cc(S(=O)(=O)NCc2cccs2)ccc1-n1cnnn1`, 10.7%.
In the case of `CC1=C/C(=C(\c2ccc(O)c(C)c2)c2ccccc2S(=O)(=O)O)C=CC1=O` it was 16.3%; in that of `O=C(NNC(=O)C1C2C=CC(C2)C1C(=O)O)c1ccccc1O` (centres unmarked), 11.7%; in that of `COc1ccc(CCN2C(=O)CS/C2=N\NC(=O)c2ccc(C(C)(C)C)cc2)cc1OC`, 12.5%.
Next, `Br.CC(=O)NNc1nc(-c2ccc(C)cc2)cs1`: 17.9%; `O=C1/C(=C/c2ccccc2)Nc2ccccc21`: 8.28%; `Cc1ccc(C(=O)Nc2nnc(C3=COCCO3)o2)cc1C`: 5.07%.
As for `CCOC(=O)c1c(C)[nH]c(C(=O)/C(C#N)=C/c2ccc(OC)c(OC)c2)c1C`, the “hERG current change (%, negative = inhibition) at 1uM” value stood at 14.6%.
Next, `CC(/C=C1\SC(=S)N(C(C(=O)O)c2ccccc2)C1=O)=C\c1ccccc1` (centres unmarked): 13.8%; `Cc1cc(C(=O)CSc2nn3c(=O)c(C(C)(C)C)nnc3s2)c(C)n1C`: 3.46%.
Next, `CCn1c(C)c(C)c2cc(C(=O)NCCCN3CCN(C)CC3)ccc21`: 16.8%.
Next, `CCC1CCCCN1C(=O)c1c(-c2ccccc2)noc1C` (centres unmarked): 9.42%; `CC(C)OC(=O)Nc1ccc2c(c1)N(C(=O)CCN1CCN(CCO)CC1)c1ccccc1CC2.Cl.O`: 9.57%; `O=C1CCCC2=C1C(c1cccs1)Nc1ccccc1N2` (centres unmarked): 7.81%.
`Cc1ccc(C)n1-c1ccc(C(=O)N/N=C/c2ccncc2)cc1`: the “hERG current change (%, negative = inhibition) at 1uM” value stood at 2.98%.
Next, `Cc1cc(C)n(C(=O)/C(C#N)=N/Nc2cc(Cl)cc(Cl)c2)n1`: 9.89%; `CCC(C)(C)NC(=O)C(c1cccs1)N(C(=O)c1ccn[nH]1)c1ccccc1` (centres unmarked): 1.13%; `Cc1ccc(C)c(OCc2cc(C(=O)N3CCNC(=O)C3)no2)c1`: 9.3%.
`Cc1ccsc1/C=N/N=C1\C(=O)Nc2ccccc21`: the “hERG current change (%, negative = inhibition) at 1uM” value was 13%.
Next, `O=C(CCN1C(=O)c2ccc([N+](=O)[O-])cc2C1=O)Nc1nccs1`: 9.88%; `CCOC(=O)N1CCC(N2CCCC(CO)(Cc3ccccc3C)C2)CC1` (centres unmarked): 7.63%.
As for `COc1ccc(CC(=O)NNc2ncnc3c2cnn3-c2ccc(C)cc2)cc1`, the “hERG current change (%, negative = inhibition) at 1uM” value was -0.6%.
With `O=C(Nc1ccc2[nH]c(=O)[nH]c2c1)Nc1ccc(F)cc1F`, the “hERG current change (%, negative = inhibition) at 1uM” value is reported as 7.17%.
In the case of `CC(C)Cn1c(SCC(=O)N(C)c2c(N)n(Cc3ccccc3)c(=O)[nH]c2=O)nc2ccccc21` it was 21%; in that of `O=C(O)Cc1ccc(-n2cccc2)cc1`, 16.5%.
Turning to `COc1ccc(CCNC(=O)c2ccc(-c3ccc([N+](=O)[O-])cc3Cl)o2)cc1OC`, the “hERG current change (%, negative = inhibition) at 1uM” value is 6.57%.
With `COC(=O)C1Cc2c([nH]c3ccccc23)C2(CCN(Cc3ccccc3)CC2)N1` (centres unmarked), the “hERG current change (%, negative = inhibition) at 1uM” value is -8.91%.
In the case of `COc1ccc(S(=O)(=O)N2CCCCCC2)cc1NC(=O)CN1C(=O)NC(C)(c2ccc(C)cc2)C1=O` (centres unmarked) it was -0.44%; in that of `COc1cccc(CNC(=S)Nc2cccc(Cl)c2C)c1`, 15.7%; in that of `COc1ccc(S(=O)(=O)N2CCN(CCc3ccccc3)CC2)cc1`, 9.86%.
Next, `Cc1ccc(-c2c[n+](Cc3ccc(Cl)c(Cl)c3)c3n2CCC3)cc1.[Cl-]`: -16.3%; `O=C(NCc1ccco1)C(c1ccncc1)N(C(=O)Cn1nnc2ccccc21)c1ccccc1F` (centres unmarked): 6.94%.
With `O=C1CCCN1CCCNc1ncnc2c1[nH]c1ccccc12`, the “hERG current change (%, negative = inhibition) at 1uM” value is given as 16.6%.
Take `Cc1ccc(C2=NN(CCC(=O)NCc3ccc4c(c3)OCO4)C(=O)CC2)cc1`: the “hERG current change (%, negative = inhibition) at 1uM” value is recorded as -12.1%.
Next, `O=C(Nc1ccc2c(c1)CCCN2C(=O)c1ccccc1)c1ccccc1`: 8.23%; `Cc1cc(C)n(-c2nc3ccccc3nc2N2CCN(S(=O)(=O)c3ccc(F)c(C)c3)CC2)n1`: 15.6%.
Next, `CON(C)c1nc(OCCNC(=O)COc2ccc(Cl)cc2C)nc(N(C)C)n1`: 6.99%; `COc1cc(CC(=O)Nc2ccc(S(=O)(=O)N(C)C)cc2)cc(OC)c1OC`: -1.83%.
Take `COc1ccc(CCC(=O)Nc2nccs2)cc1OC`: the “hERG current change (%, negative = inhibition) at 1uM” value is 8.81%.
In the case of `CCOc1ncccc1C(=O)OCC(=O)Nc1ccc(C)c(S(=O)(=O)N2CCOCC2)c1` it was 5.86%; in that of `COc1ccc(C(C)=O)cc1CSc1nnc(Nc2ccc(C)cc2C)s1`, 16%.
In the case of `COCCn1c(C)cc(C(=O)COC(=O)CNC(=O)c2ccco2)c1C` it was 12.1%; in that of `Cc1ccc2cc(CN(C)S(C)(=O)=O)c(=O)[nH]c2c1`, 13.1%; in that of `Cc1ccc(NC(=O)CC2=NC(=O)C(CC(=O)Nc3ccccc3F)S2)cc1` (centres unmarked), 14.5%.
In the case of `CC(c1ccc(O)cc1)(c1ccc(O)cc1)c1ccc(CCBr)cc1` it was 12.3%; in that of `CN(C)/C=N/c1c(C#N)cnn1-c1ncnc2sc(-c3ccccc3)cc12`, 0.979%.
For the compound `Cc1nn(Cc2ccccc2Cl)c(Cl)c1C(=O)OCC(=O)NCc1ccco1`, the “hERG current change (%, negative = inhibition) at 1uM” value was 9.54%.
Next, `Cc1ccnc(NC(=O)c2ccc(S(=O)(=O)N3CCCC3)cc2)c1`: 1.03%; `Nn1c(SCc2ccc(F)cc2)nnc1-c1cccnc1`: -2.05%.
In the case of `Cc1cc(C(=O)N2CCN(S(=O)(=O)c3ccc(F)c(Cl)c3)CC2)c(C)o1` it was -2.29%.
Take `COc1ccc(CCNC(=O)COC(=O)c2ccc(C)s2)cc1OC`: the “hERG current change (%, negative = inhibition) at 1uM” value was 11.6%.
As for `Cc1cc(C(=O)NCC(=O)OCC(=O)N(C)C2CCCCC2)ccc1[N+](=O)[O-]`, the “hERG current change (%, negative = inhibition) at 1uM” value is on record as 1.42%.
In the case of `CC(=O)OC(C(=O)Nc1ccccc1)C(C)S(=O)(=O)c1ccccc1` (centres unmarked) it was -1.13%; in that of `CCCNc1ccc(C(=O)OCC)cc1[N+](=O)[O-]`, 7.84%.
In the case of `O=C(/C=C/c1ccc(Cl)cc1)N(c1ccccn1)C1CCCCC1` it was 6.06%; in that of `CC(C)Oc1ccc(C(=O)Nc2ccc(C(F)(F)F)n(C)c2=O)cc1`, -3.82%; in that of `Cc1ccccc1-n1sc2cc(F)ccc2c1=O`, 16%.
Next, `CC(=O)Nc1ccc(/C=C/c2nc3ccccc3o2)cc1`: 15%; `O=S(=O)(Cc1ccccc1)N1CCN(C/C=C/c2ccccc2)CC1`: -2.58%.
Consider `O=C(Nc1ccc(F)c(F)c1)C1CCCCC1`, for which the “hERG current change (%, negative = inhibition) at 1uM” value stood at 13.1%.
Next, `CCOc1ccc2nc(SCC(=O)NCc3ccccc3)[nH]c2c1`: 14.5%; `COC(=O)c1cccc(NC(=O)c2ccc(OC)c(Cl)c2)c1`: -49.4%.
In the case of `Cc1ccccc1N(CC(=O)NCCc1ccccc1)C(=O)c1csnn1` it was 6.93%; in that of `CCCN(CC(=O)Nc1ccccc1OC)C(=O)c1ccc2c(c1)NC(=O)C(C)S2` (centres unmarked), 6.95%; in that of `COC(=O)C1CN(C(=O)C(C)Oc2ccc(C(C)C)cc2)c2ccccc2O1` (centres unmarked), 13.3%.
In the case of `CSc1nc2ccc(NS(=O)(=O)c3ccc4c(c3)OCCO4)cc2s1` it was 3.7%; in that of `Cn1c(N)c(C(=O)COC(=O)C2CC(=O)N(Cc3ccccc3)C2)c(=O)n(C)c1=O` (centres unmarked), 8.36%.
For the compound `CSCCC(NS(=O)(=O)c1ccc2c(c1)OCCO2)C(=O)N(C)Cc1ccccc1F` (centres unmarked), the “hERG current change (%, negative = inhibition) at 1uM” value came out at 5.61%.
In the case of `COc1cccc(-c2cc(C(F)(F)F)nc(N3CCN(c4ccccc4)CC3)n2)c1` it was 6.13%.
In the case of `CC(C)CC(NC(=O)c1ccc(Cl)cc1)C(=O)OCc1cc([N+](=O)[O-])cc2c1OCOC2` (centres unmarked) it was 16.1%; in that of `Cc1nnc(NC(=O)CSc2nc(N)c(NC(=O)c3cccs3)c(=O)[nH]2)s1`, 12.9%.
Regarding `CC1(C)CC2(CCO1)CNC(=O)O2` (centres unmarked), the “hERG current change (%, negative = inhibition) at 1uM” value came out at 5.88%.
As to `COc1ccc(/C=N\NC(=O)c2cc3c(ccc4ccccc43)o2)cc1O`, the “hERG current change (%, negative = inhibition) at 1uM” value was 12.7%.
For `COc1ccc(/C=N/Nc2nc(-c3ccc(C)cc3)c(NC(C)=O)s2)cc1OC`, the “hERG current change (%, negative = inhibition) at 1uM” value is recorded as 3.93%.
Next, `CS/C(N)=N/N=C/c1cc(Br)cc(Br)c1O`: 12.1%; `Cc1ccc(S(=O)(=O)Oc2ccc(N3C(=O)C4C5CCC(C5)C4C3=O)cc2)cc1` (centres unmarked): 11%.
In the case of `CCOc1ccc2ccccc2c1C1NC(=S)N(C)C(C)=C1C(=O)OC` (centres unmarked) it was 6.89%.
With `COc1c(C=O)c(CCN(C)C(=O)c2ccc(F)cc2)cc2c1OCO2`, the “hERG current change (%, negative = inhibition) at 1uM” value was 9.69%.
Next, `c1csc(-c2nc(NCCCN3CCOCC3)c3ccccc3n2)c1`: -8.13%; `CCc1ccccc1NC(=O)c1cc(S(=O)(=O)N(C)C)ccc1N1CCCC1`: 1.37%.
In the case of `O=C(CSc1ccc([N+](=O)[O-])cc1)NNC(=O)c1ccccc1F` it was -9.82%; in that of `O=C(OCC(=O)N1CCCCCC1)c1ccc([N+](=O)[O-])cc1Cl`, 10.9%; in that of `CC1(C)OC(c2ccccc2)=C/C(=C\C=N\NC(=O)c2ccncc2)O1`, 10.4%.
Next, `Cc1ccc(S(=O)(=O)N2CCN(C(=O)C3=COCCO3)CC2)cc1C`: -7.86%.

Values taken from PMC4336329 (PLoS ONE, 2015).
